Assay results reported in PubChem BioAssay AID624418 (National Center for Advancing Translational Sciences (NCATS), 2012).
In all, about 410,000 compounds went through this assay and about 530 (0.13%) were called active. The shares of active, inactive and inconclusive entries below differ from those in the screen. The call rests on the fitted dose curve; in most records, active means well fitted inhibition curve with a large enough effect; inconclusive means small, poorly fitted or top-dose-only effect, or another doubt; inactive means no such curve, though single readings can be large or run the other way. Potencies of inconclusive entries are doubtful fits and often do not repeat.

Test: qHTS of GLP-1 Receptor Inverse Agonists: Cytotox Screen
Conditions: HEK293 cAMP-luciferase reporter cells, luminescence, 24 h; activity change, negative = inhibition: at 38.3 µM (top of the series) unless noted
Outline: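 A 23 nL compound transfer followed 12 hours of cell culture at 37 deg C; exposure then lasted 24 hr. Luciferase assay detection reagent was dispensed and plates read for luminescence after a 12 min room-temperature wait.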
On the % scale 0 is the no-effect control and ±100 the full control effect; potency means the concentration at half of the fitted maximal effect.

For `COC(=O)/C(C(C)=O)=C(\C=C\N(C)C)N(C)C`, which “activity change, negative = inhibition” value is on record?
Its value is inactive: -2.46%.

With `Cc1cccc(NC(=O)c2oc3ccc(S(=O)(=O)N4CCCCC4)cc3c2C)c1C` as the molecule, how does the “activity change, negative = inhibition” value read?
The value was inactive: 8.18%.

For `Clc1ccc2nc(-c3ccc4c(c3)OCO4)cn2c1`, which Potency is on record?
The Potency was inconclusive: 7.08 µM [inhibitor, partial curve, poor fit].

Which Potency does the source give for `COC(=O)CSC1=C(C#N)C(c2ccc(C)o2)CC(=O)N1` (stereo not drawn) here?
The Potency was inconclusive: 5.01 µM [inhibitor, partial curve].

Which Potency does the source give for `Cc1ccc(C)c(S(=O)(=O)N2CCN(c3nc(-c4cccnc4)nc4ccccc34)CC2)c1` here?
Its Potency is inconclusive: 11.2 µM [inhibitor, single point].

Which Potency does the source give for `O=C(Nc1ccc2c(c1)CCCN2C(=O)c1ccccc1)c1ccccc1Br` here?
The Potency was inconclusive: 28.2 µM [inhibitor, single point].

With `O=C(NN=C1CCCC1)c1ccc(O)cc1O` as the molecule, how does the Potency read?
Its Potency is inconclusive: 11.2 µM [inhibitor, single point].

Which “activity change, negative = inhibition” value does the source give for `Cc1cnc(NC(=O)CSc2ccc(Cl)cc2)s1` here?
Its value is inactive: -15.6%.

Which Potency does the source give for `Cc1ccc(-c2nnc(Nc3ccc4c(c3)nc(C)n4C)c3ccccc23)cc1` here?
Its Potency is inconclusive: 28.2 µM [inhibitor, single point].

For `O=C(C1CC1)N1CCN(c2ccc([N+](=O)[O-])cc2)CC1`, which Potency is on record?
Its Potency is inconclusive: 15.8 µM [inhibitor, partial curve, poor fit].

Which “activity change, negative = inhibition” value does the source give for `COc1cccc(CNCC(=O)NC(=O)NC2CCCC2)c1` here?
Its value is inactive: -5.31%.

With `COc1ccc(OCC(O)CN2CCN(c3ccccc3)CC2)cc1` (stereo not drawn) as the molecule, how does the “activity change, negative = inhibition” value read?
The value was inactive: 4.86%.

With `CCC1CN(C(=O)Nc2cccc3c2CCCC3)c2cc(C)ccc2O1` (stereo not drawn) as the molecule, how does the “activity change, negative = inhibition” value read?
Its value is inactive: 20.8%.

With `Cc1ccc(C(=O)NC(=C(Cl)Cl)S(=O)(=O)c2ccc(Cl)cc2)cc1` as the molecule, how does the Potency read?
The Potency was inconclusive: 14.1 µM [inhibitor, single point].

With `Cc1ccnc(NC(=O)c2ccc(OCc3c(C)noc3C)cc2)c1` as the molecule, how does the “activity change, negative = inhibition” value read?
The value was inactive: -5.55%.

With `COc1ccc(NC(=O)CCCS(=O)(=O)c2nc(-c3ccc(OC)c(OC)c3)cc(C(F)(F)F)n2)cc1OC` as the molecule, how does the Potency read?
The Potency was inconclusive: 10 µM [inhibitor, single point].

Which “activity change, negative = inhibition” value does the source give for `COc1cccc(-c2nc(CS(=O)CC(=O)N3CCN(c4cccc(C(F)(F)F)c4)CC3)c(C)o2)c1` (stereo not drawn) here?
Its value is inactive: -17.4%.

Which Potency does the source give for `O=C(Cn1cnc2c(cnn2-c2ccccc2)c1=O)N1CCCc2ccccc21` here?
Its Potency is inconclusive: 31.6 µM [inhibitor, single point].

Which “activity change, negative = inhibition” value does the source give for `CC(=O)CCc1ccc(OCC(=O)Nc2cccc(S(=O)(=O)N(C)c3ccccc3)c2)cc1` here?
Its value is inactive: 7.84%.

Which “activity change, negative = inhibition” value does the source give for `O=C(NCCN1C(=O)S/C(=C\c2ccccc2)C1=O)C1CCN(S(=O)(=O)c2cccs2)CC1` here?
Its value is inactive: 12.6%.

With `CN1CCN(C(=S)NC(=O)c2ccc(Cl)cc2)CC1` as the molecule, how does the Potency read?
The Potency was inconclusive: 7.94 µM [inhibitor, partial curve, poor fit].

Which Potency does the source give for `COC(=O)NC(=S)Nc1ccc(Oc2ccc(Cl)cc2Cl)c(Cl)c1` here?
The Potency was inconclusive: 12.6 µM [inhibitor, partial curve, poor fit].

Which Potency does the source give for `CCCSc1cc(NCCOC(=O)CCC)c([N+](=O)[O-])c2nonc12` here?
The Potency was inconclusive: 11.2 µM [inhibitor, single point].

With `CCn1cc(CN2CCCC(CO)(Cc3ccc(F)cc3)C2)c2ccccc21` (stereo not drawn) as the molecule, how does the Potency read?
Its Potency is inconclusive: 12.6 µM [inhibitor, single point].

For `Cc1c(/C=N/O)c2ccccn2c1C(=O)c1ccc(F)cc1`, which activity change, negative = inhibition is on record?
Its activity change, negative = inhibition is inconclusive: -33.8% [inhibitor].

For `Cc1cc(C)c(CN2CCN(C(=O)Cn3cnc(C(=O)Nc4ccc(C)c(C)c4)n3)CC2)c(C)c1`, which Potency is on record?
Its Potency is inconclusive: 11.2 µM [inhibitor, single point].

For `O=C(c1ccncc1)N1N=C(c2ccc(Cl)cc2)CC1c1ccccc1O` (stereo not drawn), which “activity change, negative = inhibition” value is on record?
Its value is inactive: -1.28%.

For `CN(C)c1ccc(CN(CC2CCCO2)C(=O)COc2ccc(Cl)cc2)cc1` (stereo not drawn), which “activity change, negative = inhibition” value is on record?
Its value is inactive: -1.83%.

For `Clc1ccc(C2=NNC(=NCC3CCCO3)SC2)cc1` (stereo not drawn), which Potency is on record?
Its Potency is inconclusive: 14.1 µM [inhibitor, single point].

For `CCN1/C(=C/c2ccc3ccc(C)cc3[n+]2CC)Sc2ccccc21`, which Potency is on record?
The Potency was inconclusive: 3.55 µM [inhibitor, single point].

With `CCc1nc(C)cn1S(=O)(=O)c1cc(Br)ccc1OC` as the molecule, how does the Potency read?
Its Potency is inconclusive: 28.2 µM [inhibitor, single point].

With `CCOC(=O)c1c(C)nn(-c2ccc(NC(=O)c3cccs3)cc2)c1C` as the molecule, how does the Potency read?
Its Potency is inconclusive: 11.2 µM [inhibitor, single point].

For `COc1ccc(N2C(=O)/C(=C/c3cccs3)NC2=S)cc1`, which Potency is on record?
The Potency was inconclusive: 28.2 µM [inhibitor, single point].

Which Potency does the source give for `COc1ccc(NC(=O)CN(C)C(=O)C(CCSC)NC(=O)c2ccccc2)cc1` (stereo not drawn) here?
Its Potency is inconclusive: 28.2 µM [inhibitor, single point].

Which Potency does the source give for `Cc1nc(NNC(=O)c2ccc(Cl)cc2Cl)cc(-c2ccccc2)n1` here?
Its Potency is inconclusive: 28.2 µM [inhibitor, single point].

For `Cc1cc(NC2CCCCC2)nc(NCc2ccccc2)n1`, which Potency is on record?
Its Potency is inconclusive: 20 µM [inhibitor, single point].

With `CCOc1ccc(NC(=O)CN2C(=O)C(c3ccccc3)=NC23CCCCCC3)cc1` as the molecule, how does the “activity change, negative = inhibition” value read?
The value was inactive: -7.29%.

For `CCOc1ccc(N(CC(=O)Nc2cccc(F)c2)S(=O)(=O)c2c(C)noc2C)cc1`, which Potency is on record?
The Potency was inconclusive: 28.2 µM [inhibitor, single point].

With `Cc1nn2c(-c3cccc(NC(=O)CSc4nc5ccccc5o4)c3)nnc2c2ccccc12` as the molecule, how does the Potency read?
The Potency was inconclusive: 12.6 µM [inhibitor, single point].

With `O=C(CSc1nc2ccccc2o1)N1c2ccccc2Sc2ccccc21` as the molecule, how does the “activity change, negative = inhibition” value read?
The value was inactive: 22.6%.

Which Potency does the source give for `CCN(C[C@H]1N[C@@](Cc2ccccc2)(C(=O)OC)[C@H]2C(=O)N(C)C(=O)[C@@H]12)S(=O)(=O)c1ccc(C(F)(F)F)cc1` here?
Its Potency is inconclusive: 10 µM [inhibitor, single point].

Which Potency does the source give for `Cc1cc(NC(c2cccnc2)c2ccc3cccnc3c2O)no1` (stereo not drawn) here?
Its Potency is inconclusive: 3.16 µM [inhibitor, partial curve, poor fit].

Which Potency does the source give for `Oc1ccc(-c2csc(Nc3ccccn3)n2)cc1O` here?
Its Potency is inconclusive: 7.94 µM [inhibitor, partial curve].

With `COCCCNC(=S)N1CCN(c2ccc([N+](=O)[O-])cc2)CC1` as the molecule, how does the Potency read?
The Potency was inconclusive: 28.2 µM [inhibitor, single point].

For `COc1ccc(C(=O)C2CCCN(C3Cc4ccccc4C3)C2)cc1OC` (stereo not drawn), which Potency is on record?
The Potency was inconclusive: 10 µM [inhibitor, single point].

With `Cc1nc(CS(=O)(=O)c2ccc(Cl)cc2)sc1C(=O)O` as the molecule, how does the activity change, negative = inhibition read?
Its activity change, negative = inhibition is inconclusive: -32.5% [inhibitor].

With `Cc1ccc(NNC(=O)C(O)(c2cccc(C(F)(F)F)c2)c2cccc(C(F)(F)F)c2)cc1` as the molecule, how does the Potency read?
The Potency was inconclusive: 28.2 µM [inhibitor, single point].

With `C/C(=N\NC(=O)c1ccncc1)c1cc2ccccc2oc1=O` as the molecule, how does the Potency read?
Its Potency is inconclusive: 11.2 µM [inhibitor, partial curve, poor fit].

With `Cc1cc(N2CCN(Cc3cn(C)nc3-c3cccc(Cl)c3)CC2)cc(C)n1` as the molecule, how does the Potency read?
Its Potency is inconclusive: 10 µM [inhibitor, partial curve, poor fit].

Which “activity change, negative = inhibition” value does the source give for `COc1ccc(NS(=O)(=O)c2ccc3[nH]c4c(c3c2)CCCC4)cc1OC` here?
The value was inactive: -2.98%.

With `CC(C)[C@H](CO)N(Cc1cccc(F)c1)c1nc(Nc2cccc(Cl)c2)c2ncn(C(C)C)c2n1` as the molecule, how does the “activity change, negative = inhibition” value read?
The value was inactive: 17.5%.

With `COCCOCCn1c(CCCO)nc2ccccc21` as the molecule, how does the “activity change, negative = inhibition” value read?
The value was inactive: -0.486%.

For `COc1ccc(/C=N/NC(=O)c2nc(Cl)c(Cl)c(N)c2Cl)cc1COc1ccc(F)cc1F`, which Potency is on record?
Its Potency is inconclusive: 10 µM [inhibitor, single point].

Which Potency does the source give for `COc1ccc(C2/C(=C(/O)c3ccc(F)cc3)C(=O)C(=O)N2CCCN(C)C)cc1` (stereo not drawn) here?
Its Potency is inconclusive: 12.6 µM [inhibitor, single point].

Which “activity change, negative = inhibition” value does the source give for `COc1ccc(NC(=O)CSc2nnc(C)n2Cc2ccccc2)cc1` here?
The value was inactive: 10%.

Which Potency does the source give for `CC(=O)C[C@@H](O)CC(=O)[C@H]1OC(=O)CC/C=C\Cc2ccccc21` here?
Its Potency is inconclusive: 11.2 µM [inhibitor, single point].

For `COc1ccc(Cn2c(C(=O)O)c(CNCCc3cc(OC)ccc3OC)c3ccc(C)cc32)cc1`, which Potency is on record?
Its Potency is inconclusive: 12.6 µM [inhibitor, partial curve, poor fit].

With `CC1Oc2ccccc2C=C1/C=N/NC(=O)c1ccccc1` (stereo not drawn) as the molecule, how does the “activity change, negative = inhibition” value read?
The value was inactive: -5.27%.

For `Nc1c(N2CCCC2)cc(Cl)c2nonc12`, which “activity change, negative = inhibition” value is on record?
The value was inactive: 28.3%.

For `O=C(Nc1cccnc1)c1cc(-c2ccccc2O)on1`, which Potency is on record?
The Potency was inconclusive: 31.6 µM [inhibitor, single point].

With `CCN1CCN(Cc2ccc(NC(=O)c3cc(NC(=O)c4cnnc5ccccc45)cc(OC)c3)cc2C(F)(F)F)CC1` as the molecule, how does the Potency read?
Its Potency is inconclusive: 12.6 µM [inhibitor, single point].

With `COc1ccc(-c2nnc(NC(=O)c3ccccc3C)o2)cc1` as the molecule, how does the Potency read?
The Potency was inconclusive: 28.2 µM [inhibitor, single point].

Which Potency does the source give for `CCOc1cc(/C=C/C(=O)Nc2ccc(C(=O)NCCN(CC)CC)cc2)ccc1OCC(C)C` here?
Its Potency is inconclusive: 28.2 µM [inhibitor, single point].

With `Cc1cc2cc(CNC(=S)NCc3ccccc3)ccc2n1C` as the molecule, how does the Potency read?
Its Potency is inconclusive: 22.4 µM [inhibitor, single point].

With `O=[N+]([O-])c1cc(N=Nc2ccc3ccccc3c2)ccc1O` as the molecule, how does the Potency read?
Its Potency is inconclusive: 2 µM [inhibitor, full curve].

For `COc1cc(CNC(=O)c2cccc(COc3ccc(Cl)cc3)c2)cc(OC)c1`, which “activity change, negative = inhibition” value is on record?
Its value is inactive: -17.2%.

Which Potency does the source give for `O=C(NCC1(N2CCCCC2)CCCCC1)c1ccc(NS(=O)(=O)c2ccc(F)cc2)cc1` here?
The Potency was inconclusive: 17.8 µM [inhibitor, single point].

With `COc1ccc(C2CC(=O)c3cc(-c4nc(-c5ccc(Cl)cc5)cs4)c(=O)[nH]c3C2)cc1OC` (stereo not drawn) as the molecule, how does the “activity change, negative = inhibition” value read?
Its value is inactive: 23.8%.
